Measured values reported in PubChem BioAssay (NCATS).
“And” between values parts separate entries of the source, which are not always exact repeats. Equal entries are not always repeated. This list was built around the results that the source calls inconclusive (neither active nor inactive); the mix of calls is not that of the screen. For some of these results: Potencies of inconclusive entries are doubtful fits and often do not repeat. The source made the active and inactive calls. Unless noted, calls come from the whole dose curve; as a rule, active = well fitted curve in the direction sought with a large enough effect; inconclusive = small, poorly fitted or top-dose-only effect, or another doubt; inactive = no such curve, though single readings can be large; an effect the other way counts as inactive or inconclusive.

Legend:
[1] = biological target: Cytochrome P450 2D6 (Homo sapiens) (UniProt P10635); assay: Cytochrome P450 family 2 subfamily D member 6 (CYP2D6) small molecule antagonists: luciferase biochemical (cell-free) qHTS assay (AID 1645840; active = well fitted curve in the direction sought with a large enough effect in the repeat runs; inconclusive = weak or mixed curves; inactive = no such curve, though single readings can be large; an effect the other way counts as inactive or inconclusive; note: nearly all actives have a fitted effect of over 55% in size; note: potency is the fitted concentration of half-maximal effect)
Sequence of UniProt P10635 (P10635 whole entry, looked up): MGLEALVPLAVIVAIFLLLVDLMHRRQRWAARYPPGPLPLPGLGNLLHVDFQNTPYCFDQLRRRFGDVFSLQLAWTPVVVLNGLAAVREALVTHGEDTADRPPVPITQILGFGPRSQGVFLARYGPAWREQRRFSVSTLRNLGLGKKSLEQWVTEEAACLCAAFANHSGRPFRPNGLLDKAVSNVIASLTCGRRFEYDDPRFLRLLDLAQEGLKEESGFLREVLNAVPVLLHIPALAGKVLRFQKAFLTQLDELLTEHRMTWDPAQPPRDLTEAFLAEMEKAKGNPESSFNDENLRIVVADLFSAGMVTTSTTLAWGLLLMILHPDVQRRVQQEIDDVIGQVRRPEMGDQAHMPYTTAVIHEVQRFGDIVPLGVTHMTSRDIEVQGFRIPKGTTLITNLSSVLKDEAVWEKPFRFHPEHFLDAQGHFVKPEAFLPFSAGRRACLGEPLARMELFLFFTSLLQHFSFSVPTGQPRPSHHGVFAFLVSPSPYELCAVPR
Method in brief: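 P450-Glo CYP2D6 system: proluciferin substrate converted by enzyme to luciferin, read by luminescence proportional to activity. Enzyme-substrate mix with compound 10 min at room temperature, then NADPH regeneration 1 h before detection reagent.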

[2] = Primary fluorescence-based thiol-reactive (MSTI) qHTS assay for identification of artifact compounds. (AID 1845221); note: potency is the fitted concentration of half-maximal effect;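 note: thiol-reactive compounds lower the probe fluorescence signal; nearly all actives have a fitted effect of over 65% in size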
Method in brief: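 Compounds were incubated 1 h at room temperature in the dark with the MSTI probe (4 uM) in PBS pH 7.4, 2% DMSO. Signals were normalized between Acetyl-MSTI and MSTI.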

HaCat = assay: Cytotoxic Profiling of Annotated Libraries Using Quantitative High-Throughput Screening (AID 1296008); settings: Five cell lines viability, CellTiter-Glo ATP luminescence, 48-72 h; max response: hits give low values; note: nearly all actives have a fitted effect of over 60% in size; note: potency is the fitted concentration of half-maximal effect; for max response: % is set by controls: 0 for no effect and ±100 for the full control effect
Method in brief: (§1)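 Cells exposed to compounds for 48 or 72 hr at 37 degrees Celsius. Viability read as ATP-coupled luminescence with CellTiter-Glo after 10 min at room temperature.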

C33A = assay: Primary qHTS to identify gynecologic anti-cancer compounds using libraries of approved drugs and bioactive compounds (AID 1345084); settings: Gynecologic cancer cell panel viability, ATPlite luminescence, 48 h; series mostly up to 57.5 µM; note: nearly all actives have a fitted effect of over 55% in size; note: potency is the fitted concentration of half-maximal effect; for activity change, negative = cytotoxicity: % is set by controls: 0 for no effect and ±100 for the full control effect
Method in brief: (§2)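 Luminescence from the ATPlite ATP-monitoring reagent indicates viable cell number; lower signal means cytotoxicity. Cells received compound 16 h after seeding and were exposed for 48 h across five concentrations.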

CAOV3 = assay: as above; settings: Gynecologic cancer cell panel viability, ATPlite luminescence, 48 h; activity change, negative = cytotoxicity: at 57.5 µM (top of the series)
Method in brief: as §2

CASKI = assay: as above; settings: Gynecologic cancer cell panel viability, ATPlite luminescence, 48 h; series mostly up to 57.5 µM
Method in brief: as §2

Es-2 = assay: as above; settings: Gynecologic cancer cell panel viability, ATPlite luminescence, 48 h; series mostly up to 57.5 µM
Method in brief: as §2

HeLa = assay: as above; settings: Gynecologic cancer cell panel viability, ATPlite luminescence, 48 h; activity change, negative = cytotoxicity: at 57.5 µM (top of the series)
Method in brief: as §2

Hek293T = assay: as above; settings: Gynecologic cancer cell panel viability, ATPlite luminescence, 48 h, control line for the selectivity index; activity change, negative = cytotoxicity: at 57.5 µM (top of the series) unless noted
Method in brief: as §2

OV90 = assay: as above; settings: Gynecologic cancer cell panel viability, ATPlite luminescence, 48 h; series mostly up to 57.5 µM
Method in brief: as §2

PA-1 = assay: as above; settings: Gynecologic cancer cell panel viability, ATPlite luminescence, 48 h; series mostly up to 57.5 µM
Method in brief: as §2

SKOV3 = assay: as above; settings: Gynecologic cancer cell panel viability, ATPlite luminescence, 48 h; series mostly up to 57.5 µM
Method in brief: as §2

Tov-21-G = assay: as above; settings: Gynecologic cancer cell panel viability, ATPlite luminescence, 48 h; activity change, negative = cytotoxicity: at 57.5 µM (top of the series) unless noted
Method in brief: as §2

Tov112D = assay: as above; settings: Gynecologic cancer cell panel viability, ATPlite luminescence, 48 h; series mostly up to 57.5 µM
Method in brief: as §2

[3] = qHTS of pediatric cancer cell lines to identify multiple opportunities for drug repurposing: Primary screen for Rh41 cells (AID 1347108); note: nearly all actives have a fitted effect of over 70% in size; note: potency is the fitted concentration of half-maximal effect
Method in brief: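 Phenotypic viability qHTS, 48 h compound exposure, CellTiter-Glo luminescence read-out; multi-concentration dosing so that potency and efficacy derive directly from the primary screen's curves.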

[4] = Primary qHTS for inhibitors of nuclear receptor binding SET domain protein 2 (NSD2) in an isogenic RCH-ACV NSD2 p.E1099K mutant (9B) (AID 1645876); note: nearly all actives have a fitted effect of over 70% in size; note: potency is the fitted concentration of half-maximal effect
NIH3T3 = assay: Cytotoxic Profiling of Annotated Libraries Using Quantitative High-Throughput Screening (AID 1296008); settings: Five cell lines viability, CellTiter-Glo ATP luminescence, 48-72 h; max response: hits give low values; note: nearly all actives have a fitted effect of over 60% in size; note: potency is the fitted concentration of half-maximal effect; for max response: % is set by controls: 0 for no effect and ±100 for the full control effect
Method in brief: as §1

[5] = Primary qHTS for inhibitors of nuclear receptor binding SET domain protein 2 (NSD2) in an RCH-ACV wild type WT cells (2C) (AID 1645877); settings: activity change, negative = cell killing: at 44.9 µM (top of the series) unless noted; note: % is set by controls: 0 for no effect and ±100 for the full control effect; nearly all actives have a fitted effect of over 70% in size
KB-3-1 = assay: Cytotoxic Profiling of Annotated Libraries Using Quantitative High-Throughput Screening (AID 1296008); settings: Five cell lines viability, CellTiter-Glo ATP luminescence, 48-72 h; max response: hits give low values; note: nearly all actives have a fitted effect of over 60% in size; note: potency is the fitted concentration of half-maximal effect; for max response: % is set by controls: 0 for no effect and ±100 for the full control effect
Method in brief: as §1
Tags give direction and shape of the fitted curve.

Cc1nc2c(-c3cnc(N)nc3)nc(N3CCOCC3)nc2n1C(C)C
inconclusive: Potency (CAOV3) 398 nM [cytotoxic, full curve] | Potency (Es-2) 1000 nM [cytotoxic, full curve] | Potency (Tov112D) 794 nM [cytotoxic, full curve]
inactive: Potency [1] | Potency [2]
active: Potency (HaCat) 2.06 µM and 132 nM | Potency (C33A) 1410 nM | Potency (CASKI) 1260 nM | Potency (HeLa) 1580 nM | Potency (Hek293T) 708 nM | Potency (OV90) 1120 nM | Potency (PA-1) 2000 nM | Potency (SKOV3) 562 nM | Potency (Tov-21-G) 631 nM

O=c1[nH]cnc2c1ncn2[C@@H]1O[C@H](CO)[C@@H](O)[C@H]1O
inconclusive: Potency (HaCat) 29.9 µM [inhibitor, single point] | Potency (CASKI) 25100 nM [rising, single point] | Potency (SKOV3) 7080 nM [rising, full curve]
inactive: Potency [3] | Potency [4] | Potency [2]

CNC(=O)c1nn(C)c2c1C(C)(C)Cc1cnc(Nc3ccc(N4CCN(C)CC4)cc3)nc1-2
inconclusive: Potency [2] 2120 nM [inhibitor, full curve] | Potency (CAOV3) 2820 nM [cytotoxic, partial curve, poor fit] | Potency (Es-2) 3160 nM [cytotoxic, full curve] | Potency (OV90) 3550 nM [cytotoxic, partial curve, poor fit] | Potency (SKOV3) 708 nM [cytotoxic, full curve, poor fit] | Potency (Tov-21-G) 1120 nM [cytotoxic, partial curve, poor fit]
active: Potency [3] 11800 nM | Potency (HaCat) 1.66 µM and 2.06 µM | Potency (C33A) 631 nM | Potency (CASKI) 15800 nM | Potency (HeLa) 2820 nM | Potency (Hek293T) 7940 nM | Potency (PA-1) 2240 nM | Potency (Tov112D) 2240 nM

COc1cc(S(C)(=O)=O)ccc1Nc1nc2ccc(-c3ccc(NC(=O)[C@H](C)c4ccc(F)cc4)cc3)cn2n1
inconclusive: Potency (HaCat) 0.588 µM [inhibitor, full curve, poor fit] | Potency (NIH3T3) 37.1 nM [inhibitor, full curve]

NCCNCCNCCNCCN
inactive: outcome (HaCat) | activity change, negative = cytotoxicity (CASKI) 1.72% [at 11.6 µM] | activity change, negative = cytotoxicity (PA-1) 20.4% [at 11.6 µM] | activity change, negative = cytotoxicity (SKOV3) 0% [at 11.6 µM] | activity change, negative = cytotoxicity (Tov112D) 0.19% [at 11.6 µM]

Cc1c(C)c2c(c(C)c1OC(=O)c1cccnc1)CC[C@@](C)(CCC[C@H](C)CCC[C@H](C)CCCC(C)C)O2
inactive: Potency [5] | max response (HaCat) 0.9% | Potency (HeLa) | Potency (SKOV3)

CCCCCCCCCCCCSCCOCCO
inconclusive: Potency [1] 38900 nM [inhibitor, single point]
inactive: Potency [5] | max response (KB-3-1) 1.68% | max response (NIH3T3) -3.9%

CCCCCCCCOc1ccc(C(=O)c2ccccc2)c(O)c1
inactive: Potency [1] | max response (HaCat) -8.31%

CCOC(=O)CN1CCCC1=O
inactive: max response (HaCat) -7.15% | Potency (CAOV3)

CCCCCCCCCCCCCCCCCCN(C)C
inactive: Potency (SKOV3) | Potency (Tov-21-G)
inconclusive: Potency (HaCat) 8.41 µM [inhibitor, partial curve, poor fit]

CC1(C)O[C@@H]2C[C@H]3[C@@H]4CCC5=CC(=O)C=C[C@]5(C)[C@@]4(F)[C@@H](O)C[C@]3(C)[C@]2(C(=O)CO)O1
inactive: max response (HaCat) -7.17%
inconclusive: Potency [1] 15500 nM [inhibitor, partial curve, poor fit] | Potency [4] 8.41 µM [inhibitor, partial curve] and 132 nM [inhibitor, partial curve]

O=C1O[C@@H]2[C@@H](O)[C@H](O)O[C@@H]2[C@H]1O
inactive: max response (KB-3-1) -9.13%

CSCC[C@H](NC(=O)[C@H](Cc1c[nH]c2ccccc12)NC(=O)CCNC(=O)OC(C)(C)C)C(=O)N[C@@H](CC(=O)O)C(=O)N[C@@H](Cc1ccccc1)C(N)=O
inactive: Potency [3] | max response (HaCat) -2.67% | Potency (PA-1)
inconclusive: Potency [1] 34700 nM [inhibitor, single point]
